From publication PMC4336329 (PLoS ONE, 2015)
In all, about 310,000 compounds went through this assay and about 2,200 (0.71%) showed an effect of 50% or more. Effects have a minus sign here. The list shows a part of the results.

Target: human ether-à-go-go-related gene (hERG) potassium channel (human, UniProt Q12809)
Assay: primary screen, population patch clamp on CHO cells stably expressing hERG

Sequence of human ether-à-go-go-related gene (hERG) potassium channel (Q12809 whole entry, looked up): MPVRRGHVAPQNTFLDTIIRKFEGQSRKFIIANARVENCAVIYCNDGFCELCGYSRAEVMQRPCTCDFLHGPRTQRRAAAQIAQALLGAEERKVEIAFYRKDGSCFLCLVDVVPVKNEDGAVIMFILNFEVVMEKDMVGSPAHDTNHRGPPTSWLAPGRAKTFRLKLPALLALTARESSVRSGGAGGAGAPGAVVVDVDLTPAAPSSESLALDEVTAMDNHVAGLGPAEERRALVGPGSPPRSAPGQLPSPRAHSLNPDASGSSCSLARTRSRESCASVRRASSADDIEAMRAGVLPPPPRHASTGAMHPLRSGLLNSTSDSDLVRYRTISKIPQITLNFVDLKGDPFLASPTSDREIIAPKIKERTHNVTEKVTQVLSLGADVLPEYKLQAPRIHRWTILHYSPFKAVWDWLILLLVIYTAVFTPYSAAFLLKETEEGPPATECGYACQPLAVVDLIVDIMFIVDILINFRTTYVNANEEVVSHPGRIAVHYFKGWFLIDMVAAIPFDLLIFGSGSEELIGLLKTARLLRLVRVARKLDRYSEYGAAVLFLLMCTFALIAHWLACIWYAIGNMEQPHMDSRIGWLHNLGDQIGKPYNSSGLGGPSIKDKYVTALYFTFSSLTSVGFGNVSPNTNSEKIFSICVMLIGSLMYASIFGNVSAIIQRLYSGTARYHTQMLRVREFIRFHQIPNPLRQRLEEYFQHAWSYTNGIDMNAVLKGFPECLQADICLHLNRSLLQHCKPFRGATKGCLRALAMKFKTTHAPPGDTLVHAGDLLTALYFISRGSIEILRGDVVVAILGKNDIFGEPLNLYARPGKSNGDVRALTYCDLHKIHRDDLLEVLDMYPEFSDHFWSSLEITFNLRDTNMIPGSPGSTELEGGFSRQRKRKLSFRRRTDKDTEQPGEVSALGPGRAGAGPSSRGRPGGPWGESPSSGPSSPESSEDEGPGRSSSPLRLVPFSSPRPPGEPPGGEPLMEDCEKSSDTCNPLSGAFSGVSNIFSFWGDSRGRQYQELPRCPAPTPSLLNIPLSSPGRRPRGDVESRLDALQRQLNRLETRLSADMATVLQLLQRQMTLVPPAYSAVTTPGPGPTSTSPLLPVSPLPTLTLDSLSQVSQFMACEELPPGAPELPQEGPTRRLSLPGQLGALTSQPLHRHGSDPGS

Question: With `CC(C)Cn1c(SCC(=O)Nc2ccc3[nH]c(=O)[nH]c3c2)nc2ccccc2c1=O` as the compound, how does the “hERG current change (%, negative = inhibition) at 1uM” value read?
Answer: The value was 14.2%.

Question: With `CCSc1nnc2nc(C)cc(C)n12` as the compound, how does the “hERG current change (%, negative = inhibition) at 1uM” value read?
Answer: The value was 8.24%.

Question: How did the “hERG current change (%, negative = inhibition) at 1uM” value turn out when `Br.N=c1n(CCN2CCCCC2)c2ccccc2n1CC(=O)c1ccc(Cl)c(Cl)c1` was run?
Answer: The value was -14.7%.

Question: `COc1ccc(NC(=O)c2ccccc2OCc2ccc(F)cc2)c(OC)c1` was tested. Which “hERG current change (%, negative = inhibition) at 1uM” value did it give?
Answer: The value was 9.05%.

Question: How did the “hERG current change (%, negative = inhibition) at 1uM” value turn out when `Cc1cc(C(=O)N/N=C/c2ccncc2)c2ccccc2n1` was run?
Answer: The value was 12.4%.

Question: With `O=C(COC(=O)c1cc(S(=O)(=O)NCc2ccccc2)ccc1O)NCc1ccccc1` as the compound, how does the “hERG current change (%, negative = inhibition) at 1uM” value read?
Answer: Its value is 9.94%.

Question: How did the “hERG current change (%, negative = inhibition) at 1uM” value turn out when `COc1ccc(C(c2c(C)[nH][nH]c2=O)c2c(C)[nH][nH]c2=O)cc1Br` was run?
Answer: Its value is 8.93%.

Question: Which “hERG current change (%, negative = inhibition) at 1uM” value does the source give for `Oc1ccc(/C=N/NP(=S)(c2ccccc2)c2ccccc2)cc1O` here?
Answer: Its value is 2.29%.

Question: `Cc1ccc(Oc2nsnc2N2CCOCC2)cc1` was tested. Which “hERG current change (%, negative = inhibition) at 1uM” value did it give?
Answer: The value was 3.27%.

Question: With `CC(C)c1ccc(/C=C/c2[nH]c(=O)[nH]c(=O)c2[N+](=O)[O-])cc1` as the compound, how does the “hERG current change (%, negative = inhibition) at 1uM” value read?
Answer: The value was 10.8%.

Question: With `C=CCNC(=S)N/N=C(\C)c1cccc(OC)c1` as the compound, how does the “hERG current change (%, negative = inhibition) at 1uM” value read?
Answer: Its value is 1.34%.

Question: How did the “hERG current change (%, negative = inhibition) at 1uM” value turn out when `CN(C)CCCNC(=O)c1cc(C(=O)Cc2ccc(Cl)cc2)c[nH]1` was run?
Answer: Its value is -5.69%.

Question: With `O=S(=O)(c1ccc2ccccc2c1)N1CCN(C(=S)Nc2ccccc2F)CC1` as the compound, how does the “hERG current change (%, negative = inhibition) at 1uM” value read?
Answer: Its value is 2.6%.

Question: For `O=C(N/N=C/c1ccccn1)c1cc(-c2ccccc2Cl)n[nH]1`, which “hERG current change (%, negative = inhibition) at 1uM” value is on record?
Answer: The value was 15.5%.

Question: With `CN1CCCN(C(=O)c2cc(=O)[nH]c3ccccc23)c2nc3ccccc3nc21` as the compound, how does the “hERG current change (%, negative = inhibition) at 1uM” value read?
Answer: The value was -3.46%.

Question: How did the “hERG current change (%, negative = inhibition) at 1uM” value turn out when `Cc1oc(C(C)(C)C)cc1C(=O)Nc1cccc(/C=C/C(=O)O)c1` was run?
Answer: Its value is -0.0917%.

Question: `N#Cc1c(NC(=O)C(=O)NCCCN2CCOCC2)sc2c1CCC2` was tested. Which “hERG current change (%, negative = inhibition) at 1uM” value did it give?
Answer: The value was 12.8%.

Question: Which “hERG current change (%, negative = inhibition) at 1uM” value does the source give for `FC(F)(F)c1nnc2c(Sc3ccccc3)nc3ccc(Cl)cc3n12` here?
Answer: Its value is 10%.

Question: With `Cc1cc(=O)oc2cc(NC(=S)NNC(=O)c3c(Cl)cnn3C)ccc12` as the compound, how does the “hERG current change (%, negative = inhibition) at 1uM” value read?
Answer: The value was 8.01%.

Question: `COC(=O)c1ccc2c(c1)C(=O)/C(=C/c1ccc(O)cc1)O2` was tested. Which “hERG current change (%, negative = inhibition) at 1uM” value did it give?
Answer: Its value is 16.3%.

Question: How did the “hERG current change (%, negative = inhibition) at 1uM” value turn out when `Cc1cc(C)n(-c2ccc(Cl)c(C(=O)Nc3ccc(OC(F)(F)F)cc3)n2)n1` was run?
Answer: Its value is 1.74%.

Question: With `C/C(=N\Nc1cccc2cccnc12)c1ccccn1` as the compound, how does the “hERG current change (%, negative = inhibition) at 1uM” value read?
Answer: Its value is 10.3%.

Question: For `O=C(CNS(=O)(=O)/C=C/c1ccccc1)OC1CCOC1=O` (stereo not shown), which “hERG current change (%, negative = inhibition) at 1uM” value is on record?
Answer: Its value is 10.2%.

Question: For `Cc1ccc(-c2nnn(CCC(=O)NC3CCCC3)n2)cc1`, which “hERG current change (%, negative = inhibition) at 1uM” value is on record?
Answer: Its value is 4.87%.

Question: How did the “hERG current change (%, negative = inhibition) at 1uM” value turn out when `Cc1cccc(S(=O)(=O)NCCc2cn3ccccc3n2)c1` was run?
Answer: The value was 7.71%.

Question: With `CCCCCc1ccc(S(=O)(=O)NCCc2ccncc2)cc1` as the compound, how does the “hERG current change (%, negative = inhibition) at 1uM” value read?
Answer: Its value is -10.1%.

Question: With `CCOC(=O)C1CCN(CCC(=O)Nc2ccc(F)cc2)CC1` as the compound, how does the “hERG current change (%, negative = inhibition) at 1uM” value read?
Answer: The value was 6.25%.

Question: With `CCN(CC)CCNC(=O)c1[nH]c2ccc(OCc3ccccc3)cc2c1C` as the compound, how does the “hERG current change (%, negative = inhibition) at 1uM” value read?
Answer: The value was -61.3%.

Question: With `CCN(CC)c1ccc(N)cc1S(=O)(=O)Nc1ccccc1OC` as the compound, how does the “hERG current change (%, negative = inhibition) at 1uM” value read?
Answer: Its value is -4.18%.

Question: For `CC(=O)N1CC(C)Sc2ccc(S(=O)(=O)NCc3ccc(Cl)cc3)cc21` (stereo not shown), which “hERG current change (%, negative = inhibition) at 1uM” value is on record?
Answer: Its value is 1.91%.

Question: `O=C1Nc2ccccc2C1C(C[N+](=O)[O-])c1ccccc1` (stereo not shown) was tested. Which “hERG current change (%, negative = inhibition) at 1uM” value did it give?
Answer: Its value is -1.46%.

Question: With `CCc1c(C)c2ccc(OC3CCCCC3=O)cc2oc1=O` (stereo not shown) as the compound, how does the “hERG current change (%, negative = inhibition) at 1uM” value read?
Answer: The value was 10.8%.

Question: Which “hERG current change (%, negative = inhibition) at 1uM” value does the source give for `O=C(COc1ccc2cc(-c3ccccc3)c(=O)oc2c1)NCC1CCC(C(=O)O)CC1` (stereo not shown) here?
Answer: Its value is 9.54%.

Question: For `N#CCCNC(=O)CCN1CCCCC1`, which “hERG current change (%, negative = inhibition) at 1uM” value is on record?
Answer: Its value is -0.18%.

Question: `Cc1sc(NC(=O)C2CC(Cl)=CCC2C(=O)O)c(C#N)c1C` (stereo not shown) was tested. Which “hERG current change (%, negative = inhibition) at 1uM” value did it give?
Answer: The value was 11.3%.

Question: Which “hERG current change (%, negative = inhibition) at 1uM” value does the source give for `Cc1cccc(N2CCN(C(=O)CN3C(=O)NC(C)(C)C3=O)CC2)c1C` here?
Answer: Its value is 11.3%.

Question: Which “hERG current change (%, negative = inhibition) at 1uM” value does the source give for `O=C(Nc1ccc(Cl)cc1)OCc1cc(-c2ccccc2Cl)on1` here?
Answer: The value was 11.7%.

Question: With `C=CCNC(=O)c1onc(CSc2ccc(Cl)cc2)c1C(=O)O` as the compound, how does the “hERG current change (%, negative = inhibition) at 1uM” value read?
Answer: Its value is 13.6%.

Question: For `C=CCc1cccc(CNn2cnnc2)c1O`, which “hERG current change (%, negative = inhibition) at 1uM” value is on record?
Answer: The value was 15.2%.

Question: For `COC(=O)C1(C)Cc2cc(OC(C)=O)c(OC(C)=O)cc2N1` (stereo not shown), which “hERG current change (%, negative = inhibition) at 1uM” value is on record?
Answer: The value was 11.7%.

Question: `CSc1nnc2n(-c3ccc(C)cc3)c(=O)c3c4c(sc3n12)COC(C(C)C)C4` (stereo not shown) was tested. Which “hERG current change (%, negative = inhibition) at 1uM” value did it give?
Answer: The value was 13.3%.

Question: How did the “hERG current change (%, negative = inhibition) at 1uM” value turn out when `O=C(COC(=O)c1cc(Cl)cc(Cl)c1)NCCN1C(=O)CSC1=O` was run?
Answer: Its value is 9.27%.

Question: How did the “hERG current change (%, negative = inhibition) at 1uM” value turn out when `Cc1ccc(-n2cnnn2)cc1Cl` was run?
Answer: Its value is -16.6%.

Question: How did the “hERG current change (%, negative = inhibition) at 1uM” value turn out when `COc1ccccc1CNC(=O)COC(=O)C12CC3CC(CC(O)(C3)C1)C2` was run?
Answer: Its value is 3.32%.

Question: For `CS(=O)(=O)N1CCC(C(=O)Nc2ccc(Oc3ccccc3)cc2)CC1`, which “hERG current change (%, negative = inhibition) at 1uM” value is on record?
Answer: Its value is -8.7%.

Question: Which “hERG current change (%, negative = inhibition) at 1uM” value does the source give for `CCN1CCN(C(=O)C2CCN(Cc3nc(-c4cccc(Cl)c4)oc3C)CC2)CC1` here?
Answer: The value was -21%.
